Data reported in article PMC6919601, “Identification of Plasmodium dipeptidyl aminopeptidase allosteric inhibitors by high throughput screening” (PLoS ONE, 2019).
Among all 110,000 compounds or so, about 230 (0.21%) showed an effect of 50% or more. Some of the results follow.

target: DPAP1 (Plasmodium falciparum, UniProt Q8IIJ9); test: primary screen, percent inhibition; read by cleavage of a fluorogenic dipeptide substrate; higher = more effect of the substance; design: species or system P. falciparum D10 trophozoite lysates; single well
Sequence (Q8IIJ9 whole entry, looked up): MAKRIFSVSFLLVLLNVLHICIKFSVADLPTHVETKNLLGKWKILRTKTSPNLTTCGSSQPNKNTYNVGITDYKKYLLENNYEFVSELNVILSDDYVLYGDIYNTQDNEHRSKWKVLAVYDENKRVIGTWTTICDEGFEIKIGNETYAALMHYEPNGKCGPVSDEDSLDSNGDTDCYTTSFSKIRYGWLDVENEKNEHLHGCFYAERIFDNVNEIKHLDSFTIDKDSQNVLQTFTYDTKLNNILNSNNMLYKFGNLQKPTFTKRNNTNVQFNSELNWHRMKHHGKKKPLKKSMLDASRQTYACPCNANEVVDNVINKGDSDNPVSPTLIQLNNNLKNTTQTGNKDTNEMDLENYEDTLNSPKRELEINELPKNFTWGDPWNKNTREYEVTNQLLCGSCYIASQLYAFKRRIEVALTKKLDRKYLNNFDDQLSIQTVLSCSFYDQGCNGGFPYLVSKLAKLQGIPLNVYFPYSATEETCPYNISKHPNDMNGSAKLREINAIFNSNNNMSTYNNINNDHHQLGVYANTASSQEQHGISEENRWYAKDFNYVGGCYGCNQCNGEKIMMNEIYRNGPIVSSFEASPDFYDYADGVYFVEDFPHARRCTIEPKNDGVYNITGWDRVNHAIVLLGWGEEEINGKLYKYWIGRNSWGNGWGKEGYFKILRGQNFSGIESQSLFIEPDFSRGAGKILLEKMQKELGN
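Note: 30 min substrate incubation versus DMSO and 10 µM JCP410 controls.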

| Compound | % Inhibition @ 10 uM |
| --- | --- |
| COC(=O)c1ccc(Oc2ccc(C#N)cc2)cc1 | -3.55% |
| CCCC(C#N)NC(=O)[C@H](CC(C)C)NC(=O)OCc1ccccc1 (stereo partly shown) | 0.174% |
| CCCn1c(NCc2ccc(OCC)cc2)nc2ccccc21 | 1.64% |
| CN1CCN(S(=O)(=O)c2ccc(F)cc2)CC1 | 0.526% |
| COc1ccc(OC)c(C2NC(=O)NC(C)=C2C(=O)OCCc2ccccc2)c1Br (stereo not shown) | 4.41% |
| O=C(O)CCCCCN1C(=O)C(O)=C(C(=O)c2ccc(F)cc2)C1c1ccccc1F (stereo not shown) | -5.63% |
| CC(C)C(=O)Nc1ccc(Cc2ccc(NC(=O)C(C)C)c(O)c2)cc1O | -0.519% |
| CNC(=O)c1ccc(-c2nc(CS(=O)(=O)c3ccc(C)cc3)c(C)o2)cc1 | -6.11% |
| CC(C)=C1C2C=CC1C1C(=O)N(CCO)C(=O)C21 (stereo not shown) | 1.4% |
| CCOc1ccc2nc(N3CCCC(C(=O)NC4CCCCC4C)C3)sc2c1 (stereo not shown) | 4.95% |
| C/N=C1/S/C(=C/c2c(O)ccc3ccccc23)C(=O)N1C | 33.9% |
| CCNC(=O)c1ccc2c(c1)c(C)c(C)n2Cc1ccccc1 | 3.78% |
| O=C(NCc1cccnc1)c1cc(-c2ccc(Br)cc2)on1 | -3.36% |
| OC(CN1CCN(c2cccnc2)CC1)Cn1nnnc1-c1ccccc1 (stereo not shown) | 0.974% |
| Cc1ccccc1NC(=O)c1ccc(N)cc1C(=O)O | -4.96% |
| Cc1cccn2c(=O)c(/C=C3\SC(=S)NC3=O)c(NCc3ccco3)nc12 | -1.33% |
| COc1ccc(C(=O)Nc2ccc(C)cc2Br)cc1 | -11% |
| COc1ccc(C(=O)OCCNc2nc(-c3ccccc3)nc3ccccc23)cc1 | -0.169% |
| CC(=O)Nc1ccc(C(=O)Nc2ccc(S(N)(=O)=O)cc2)cc1 | 0.317% |
| CC(C)OCCCn1c(SCC(=O)NC2CCCC2)nc2c(sc3ccccc32)c1=O | 5.89% |
| CC1=C(C#N)C(Nc2nccs2)(C(F)(F)F)C(=O)N1 (stereo not shown) | -3.33% |
| O=C(c1cc2nc(-c3ccco3)cc(C(F)(F)F)n2n1)N1CCc2ccccc2C1 | -6.7% |
| FC(F)(F)c1nnc2sc(-c3ccc4c(c3)OCCO4)nn12 | 0.635% |
| CCOC(=O)c1cc(C)n(-c2ccc(C)c(C)c2)c1C | -1.75% |
| O=C(O)Cn1ncc2c3ccccc3n(Cc3ccc(Cl)cc3)c2c1=O | 4.79% |

| Compound | % Inhibition @ 10 uM |
| --- | --- |
| COc1ccc(C2=NS(=O)(=O)N(C)C(C(=O)N(C)Cc3ccccc3)=C2)cc1 | -2.84% |
| N#Cc1ccccc1NC(=O)c1ccc(-c2ccccc2)cc1 | -1.76% |
| Cc1ccnc(NS(=O)(=O)c2ccc3ccccc3c2)n1 | -4.06% |
| COc1ccc(OCCCSC(C)C)cc1 | -1.64% |
| Cc1cc2oc3c(c(=O)c2cc1C)C(c1ccccc1F)N(c1nccs1)C3=O (stereo not shown) | -3.13% |
| COc1ccc(CCNc2nc(C)cc(C(F)(F)F)n2)cc1OC | 1.23% |
| O=C(NCc1ccc(Cl)cc1)c1ccc2nc(N3CCCCC3)sc2c1 | 4.22% |
| Cc1cccc(/C=C2\SC(=O)N(c3ccccc3)C2=O)n1 | -11.5% |
| CN1CCN(C(=O)c2ccc(F)c(F)c2)CC1 | 2.18% |
| CC1CCN(S(=O)(=O)c2ccc(NC(=O)c3ccc(Br)cc3)cc2)CC1 | -9.26% |
| CCCCN1C(=O)c2cccc3cccc(c23)C1=O | 7.64% |
| O=C(NCC1CCCO1)c1cc2nc(-c3ccco3)cc(C(F)(F)Cl)n2n1 (stereo not shown) | 8.93% |
| Cc1ccccc1C(=O)Nc1ccccc1F | 3.74% |
| COc1ccc(Nc2cccc(C(F)(F)F)c2)c(C(=O)O)c1 | 3.81% |
| O=C(Nc1ccc(S(=O)(=O)Nc2ccc(F)cc2)cc1)c1ccccc1Br | -5.44% |
| Cc1ccc(S(=O)(=O)c2cnc3ccncc3c2O)cc1 | 1.02% |
| Cc1cc(C)c(C)c(S(=O)(=O)NCc2ccc(C(=O)N3CCN(C)CC3)cc2)c1C | 0.145% |
| CC1=C(C#N)C(=O)N(CCO)C(=O)/C1=C\c1ccc(-c2ccccc2)o1 | -1.26% |
| CCN(CC)c1nc(Nc2ccc(C)cc2)nc(N(CC)CC)n1 | -4.23% |
| CC(C)c1ccc(CN(C(=O)c2cc(=O)c3cc(Cl)ccc3o2)C2CCS(=O)(=O)C2)cc1 (stereo not shown) | 5.06% |
| CCc1ccc(-c2cn3ccsc3n2)cc1 | -4.03% |
| O=C(O)C1CCN(C(=O)c2ccc(Cl)cc2)CC1 | -0.992% |
| COc1ccc(C2=N/C(=C\C(Cl)=C\c3ccccc3)C(=O)O2)cc1Br | 5.01% |
| CCOC(=O)c1cnn(-c2ccccc2Cl)c1C1CCN(C(=O)OC(C)(C)C)CC1 | 3.96% |
| O=C(Nc1ccc(F)c(F)c1)c1ccc(C(=O)Nc2ccc(F)c(F)c2)nc1 | -5.69% |

| Compound | % Inhibition @ 10 uM |
| --- | --- |
| CC1=CC2=NC(=O)/C(=C\c3ccc(Sc4ccc(Cl)cc4)o3)C(=N)N2O1 | 3.63% |
| O=C(CCSc1nc2cc(Cl)ccc2o1)N1CCCC1 | -3.45% |
| O=C(O)C1C(=O)NCC1c1ccccc1 (stereo not shown) | 7.09% |
| CCC(=O)Nc1ccc(N(CC)CC)cc1C | -2.65% |
| CC1(C)CC(=O)c2c(nc(SC3C=CCCC3)c(C#N)c2-c2ccccc2)C1 (stereo not shown) | -0.591% |
| Cc1[nH]c2ccccc2c1C1=CCN(S(=O)(=O)c2cccc3nsnc23)CC1 | -1.08% |
| Cc1cc(C)c(C2C(C#N)=C(N)OC3=C2C(=O)CCC3)c(C)c1 (stereo not shown) | 23.3% |
| COc1ccc(/C=C/C(=O)C2(O)CCCCC2)cc1OC | 0.9% |
| COc1ccc(Nc2cc(C)nc(Nc3ccc(OC)cc3)n2)cc1 | -10.9% |
| CC(C)c1ccc(NC(=O)c2cccc([N+](=O)[O-])c2)cc1 | 5.08% |
| CCN1CCN(C2CCN(CCc3ccccc3)CC2)CC1 | 2.1% |
| CCOC(=O)c1ccc(S(=O)(=O)N2CCC(C(N)=O)(N3CCCCC3)CC2)cc1 | 1% |
| CCc1ccc(-c2nc(CSCC(=O)NCc3ccccc3)c(C)o2)cc1 | 3.99% |
| COc1ccc(N(CC(=O)Nc2cc(C)cc(C)c2)S(C)(=O)=O)cc1OC | 3.66% |
| COc1ccc(C2C(C(=O)c3ccc(C)cc3)=C(O)C(=O)N2C)cc1 (stereo not shown) | -0.171% |
| Oc1ccc(Cl)cc1-c1cc(-c2ccccc2)[nH]n1 | 3.15% |
| COc1ccc(-c2cc(C(=O)Nc3ccc(C(=O)N4CCOCC4)cc3)c3cc(C)ccc3n2)cc1 | -7.09% |
| CC(C)CCN(C)C1CCN(S(=O)(=O)c2ccc(C3CCCCC3)cc2)CC1 | 3.66% |
| COCc1cc(C)nc(Cl)c1C#N | -6.87% |
| CCN(CC)C(=O)Cn1c(=O)cc(C)c2c(C)nn(-c3cccc(F)c3)c21 | 3.99% |
| CCc1ccccc1NC(=O)c1ccc(OC)cc1OC | -2.44% |
| Cc1nn(C(C)C(=O)N2CCN(C(=O)c3ccco3)CC2)c(=O)c2c1sc1ccccc12 (stereo not shown) | -1.17% |
| Cc1nc(-n2cccc2)sc1C(=O)NC1CCN(Cc2ccccc2)CC1 | 1.03% |
| CCCOc1c(Br)cc(/C=C2\SC(=O)NC2=O)cc1OCC | 0.823% |
| CCN1CCN(C(=O)c2cn(CC(C)C)c(=O)c3c2c2ccccc2n3C)CC1 | -5.09% |

| Compound | % Inhibition @ 10 uM |
| --- | --- |
| CCOc1cc(C2C(C#N)=C(N)OC3=C2C(=O)CC(C)(C)C3)ccc1OCC(=O)Nc1ccccc1 (stereo not shown) | 1.4% |
| O=C(O)CCCc1cn(Cc2ccc(F)cc2)c2ccccc12 | 4.79% |
| CC(=O)c1ccc(N2C(=O)c3ccc(Oc4ccccc4)cc3C2=O)cc1 | -2.09% |
| COc1cc(OC)c(OC)cc1CN1CCN(C(=O)c2ccc(OC)c(OC)c2)CC1 | 7.31% |
| COc1ccc(C(O)(C(=O)O)c2ccc(OC)cc2)cc1 | -9.41% |
| Cc1ccc(-n2ncc3c(N4CCC5(CC4)OCCO5)ncnc32)c(C)c1 | -6.87% |
| CC1=C(C(=O)Nc2cccc(C)c2C)C(c2ccccc2F)NC(=O)N1 (stereo not shown) | -2.67% |
| Cc1ccnc(N2CCCC(C(=O)O)C2)n1 (stereo not shown) | -8.78% |
| C=CCNS(=O)(=O)c1ccc(C)cc1 | 1.42% |
| CC(C)C[C@@H](NC(c1ccc(Br)cc1)C(F)(F)F)C(=O)NCC#N (stereo partly shown) | -3.04% |
| O=S(=O)(Nc1ccc(F)cc1)c1ccccc1 | -1.77% |
| COc1ccc(C(=O)NCc2nc(-c3ccc(Cl)cc3)no2)cc1OC | -6.72% |
| Cc1cc(C)c(C)c(S(=O)(=O)Nc2ccc(C(=O)N3CCN(C)CC3)cc2)c1C | -2.85% |
| Cc1cc2cc(CNC(=S)NC(C)(C)C)ccc2n1C | 1.55% |
| CO/C(O)=C1\C(C)=NC2=C(C(=O)CC(c3ccccc3)C2)C1c1cc2c(cc1Br)OCO2 (stereo not shown) | -5.9% |
| C=CCOc1ccc(C2C(C(=O)c3ccc(OC)cc3)=C(O)C(=O)N2CCCn2ccnc2)cc1 (stereo not shown) | 2.17% |
| CCCCOc1ccc(C2(C)CC(=O)NC2=O)cc1 (stereo not shown) | 2.51% |
| Nc1nc(Cl)nc(Nc2ccccc2OC(F)(F)C(F)Cl)n1 (stereo not shown) | 3.06% |
| CCOC(=O)C1CN1C(CC)C(=O)OC (stereo not shown) | -1.59% |
| CCc1nn(Cc2ccc(F)cc2)c(=O)c2cc3cc(C)ccc3n12 | 4.55% |
| COc1ccc(Cl)cc1C(=O)NCCN1CCN(C(=O)c2cc(Cl)ccc2OC)CC1 | 2.03% |
| O=C(O)CN1C(=O)c2ccc(Oc3ccc(Br)cc3)cc2C1=O | -0.68% |
| O=S(=O)(c1ccc(-c2ccc(S(=O)(=O)N3CCCCC3)cc2)cc1)N1CCCCC1 | -5.41% |
| CCC(NC(=O)C(Cc1c(F)cccc1F)NC(=O)c1ccc(Oc2ccccc2)cc1)C(=O)c1nc2ccccc2o1 (stereo not shown) | 1.35% |
| Cc1ccc(CNC(=O)C2CCCN(S(=O)(=O)c3ccc4[nH]c(-c5ccccc5)nc4c3)C2)cc1 (stereo not shown) | -1.69% |
